The supplement of paper PMC4967469

Tests used:
Assay in all cases: Viability of human cancer cell lines after 72 h of drug (GDSC screen)
NPK76-II-72-1 = compound: COc1cc(C(=O)NC2CCN(C)CC2)ccc1Nc1ncc2c(n1)N(C1CCCC1)C(C)CC(=O)N2C [NPK76-II-72-1]; settings: top dose 10.24 µM; top dose inferred
Procedure: (§1)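 Human cancer cell lines in 384-well plates, medium with 10% serum, drug for 72 h over a 256-fold dose range (nine 2-fold or five 4-fold steps up to the top dose). Adherent lines were fixed and stained with the nucleic acid dye Syto60, suspension lines read with resazurin; signal relative to control wells, capped at 0 and 100%. One two-parameter sigmoid per drug and line, fitted in a mixed model over all curves with the slope shared within a line.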

BMS-345541 = compound: Cc1ccc2nc(NCCN)c3ncc(C)n3c2c1 [BMS-345541]; settings: top dose 16 µM
Procedure: as §1

XAV 939 = compound: Oc1nc(-c2ccc(C(F)(F)F)cc2)nc2c1CSCC2 [XAV 939]; settings: top dose 5 µM; top dose inferred
Procedure: as §1

GSK-650394 = compound: O=C(O)c1ccc(-c2c[nH]c3ncc(-c4ccccc4)cc23)cc1C1CCCC1 [GSK-650394]; settings: top dose 16 µM; top dose inferred
Procedure: as §1

YK 4-279 = compound: COc1ccc(C(=O)CC2(O)C(=O)Nc3c(Cl)ccc(Cl)c32)cc1 [YK 4-279]; settings: top dose 10 µM
Procedure: as §1

Bexarotene = compound: C=C(c1ccc(C(=O)O)cc1)c1cc2c(cc1C)C(C)(C)CCC2(C)C [Bexarotene]; settings: top dose 8 µM
Procedure: as §1

AZD7762 = compound: NC(=O)Nc1cc(-c2cccc(F)c2)sc1C(=O)N[C@H]1CCCNC1 [AZD7762]; settings: top dose 2 µM
Procedure: as §1

| Cell Line | AUC (NPK76-II-72-1) | IC50 (NPK76-II-72-1) [µM] | AUC (BMS-345541) | IC50 (BMS-345541) [µM] | AUC (XAV 939) | IC50 (XAV 939) [µM] | AUC (GSK-650394) | IC50 (GSK-650394) [µM] | AUC (YK 4-279) | IC50 (YK 4-279) [µM] | AUC (Bexarotene) | IC50 (Bexarotene) [µM] | AUC (AZD7762) | IC50 (AZD7762) [µM] |
| --- | --- | --- | --- | --- | --- | --- | --- | --- | --- | --- | --- | --- | --- | --- |
| A172 (glioma, adherent) | 0.895 | > 10.2 | 0.916 | > 16 | 0.956 | > 5 | 0.869 | 13.8 | 0.731 | 2.75 |  |  |  |  |
| A375 (melanoma, adherent) | 0.891 | 8.21 | 0.895 | 13.3 | 0.976 | > 5 | 0.76 | 4.74 | 0.599 | 1.11 | 0.861 | 4.89 |  |  |
| BALL-1 (B-cell leukaemia, suspension) |  |  |  |  | 0.995 | > 5 |  |  | 0.85 | 4.64 |  |  | 0.422 | 0.0808 |
| BT-549 (breast, adherent) |  |  |  |  | 0.921 | > 5 |  |  | 0.734 | 3.86 |  |  | 0.668 | 0.443 |
| CL-34 (large intestine, adherent) |  |  |  |  | 0.983 | > 5 |  |  | 0.827 | 6.99 |  |  | 0.874 | > 2 |
| CL-40 (large intestine, adherent) |  |  |  |  | 0.929 | > 5 |  |  | 0.798 | 9.36 |  |  | 0.825 | > 2 |
| CML-T1 (chronic myeloid leukaemia, suspension) |  |  |  |  | 0.97 | > 5 |  |  | 0.778 | 3.35 |  |  | 0.488 | 0.117 |
| COLO-792 (melanoma, adherent) | 0.987 | > 10.2 | 0.879 | 15.9 | 0.956 | > 5 | 0.907 | > 16 | 0.672 | 1.86 | 0.988 | > 8 |  |  |
| CRO-AP2 (B-cell lymphoma, suspension) |  |  |  |  | 0.989 | > 5 |  |  | 0.499 | 0.621 |  |  | 0.547 | 0.165 |
| DIFI (large intestine, adherent) |  |  |  |  | 0.986 | > 5 |  |  | 0.774 | 4.08 |  |  | 0.69 | 0.436 |
| EW-22 (Ewing sarcoma, adherent) |  |  |  |  | 0.987 | > 5 |  |  | 0.647 | 1.57 |  |  | 0.73 | 0.547 |
| HCC1806 (breast, adherent) | 0.658 | 1.69 | 0.887 | 15.4 | 0.987 | > 5 | 0.969 | > 16 | 0.666 | 1.73 | 0.965 | > 8 |  |  |
| HCC-366 (non-small cell lung carcinoma, adherent) |  |  |  |  | 0.981 | > 5 |  |  | 0.76 | 3.65 |  |  | 0.779 | 0.851 |
| HT-29 (large intestine, adherent) | 0.7 | 2.34 | 0.877 | > 16 |  |  | 0.781 | 6.63 | 0.669 | 1.85 | 0.948 | > 8 |  |  |
| IGROV-1 (ovary, adherent) |  |  |  |  | 0.926 | > 5 |  |  | 0.824 | > 10 |  |  | 0.577 | 0.225 |
| J82 (bladder, adherent) | 0.983 | > 10.2 | 0.919 | > 16 | 0.969 | > 5 | 0.73 | 4.49 | 0.794 | 4.58 | 0.89 | > 8 |  |  |
| JEKO-1 (B-cell lymphoma, suspension) |  |  |  |  | 0.983 | > 5 |  |  | 0.567 | 0.945 |  |  | 0.298 | 0.0347 |
| Jurkat (T-cell leukaemia, suspension) |  |  |  |  |  |  |  |  | 0.569 | 0.931 |  |  | 0.751 | 0.557 |
| KARPAS-1106P (B-cell lymphoma, suspension) |  |  |  |  | 0.993 | > 5 |  |  | 0.86 | 6.12 |  |  | 0.513 | 0.134 |
| KG-1 (acute myeloid leukaemia, suspension) | 0.52 | 0.721 | 0.886 | 14.4 | 0.981 | > 5 | 0.853 | 10.5 | 0.638 | 1.44 | 0.988 | > 8 |  |  |
| KNS-62 (lung squamous cell carcinoma, adherent) |  |  |  |  | 0.854 | > 5 |  |  | 0.775 | 5.92 |  |  | 0.709 | 0.645 |
| LOXIMVI (melanoma, semi-adherent) | 0.896 | > 10.2 | 0.901 | > 16 | 0.976 | > 5 | 0.99 | > 16 | 0.722 | 2.44 | 0.981 | > 8 |  |  |
| MEL-HO (melanoma, adherent) |  |  |  |  | 0.98 | > 5 |  |  | 0.72 | 2.65 |  |  | 0.785 | 0.864 |
| MHH-CALL-2 (B-cell leukaemia, suspension) |  |  |  |  | 0.997 | > 5 |  |  | 0.91 | 7.34 |  |  | 0.509 | 0.131 |
| MKN7 (stomach, adherent) |  |  |  |  | 0.976 | > 5 |  |  | 0.96 | > 10 |  |  | 0.816 | 1.63 |
| MOLM-16 (acute myeloid leukaemia, suspension) |  |  |  |  | 0.966 | > 5 |  |  | 0.474 | 0.537 |  |  | 0.537 | 0.155 |
| MOLT-16 (T-cell lymphoblastic leukaemia, suspension) |  |  |  |  | 0.974 | > 5 |  |  | 0.482 | 0.565 |  |  | 0.527 | 0.146 |
| NCC010 (kidney, adherent) |  |  |  |  | 0.892 | > 5 |  |  | 0.739 | 3.18 |  |  | 0.646 | 0.327 |
| NCI-H146 (small cell lung carcinoma, suspension) |  |  |  |  | 0.991 | > 5 |  |  | 0.984 | > 10 |  |  | 0.94 | > 2 |
| NCI-H508 (large intestine, semi-adherent) |  |  |  |  | 0.971 | > 5 |  |  | 0.957 | > 10 |  |  | 0.892 | > 2 |

The IC50 comes from the fitted curve, where viability falls to half of the control; where the fit passes the top or lowest dose, that dose stands as a limit. AUC sums up the same curve from the lowest dose to the 256-fold higher top dose: 1 means no effect, lower means more sensitive. For part of these data: The top dose, if marked as inferred, is not printed in the source and was worked back from the curve model.
